Toxic doses and inconclusive results are not listed. The source holds more than one record for some entries. This list holds those alone. The source may hold further records. Values that stand side by side differ, and nothing given here explains why; they may come from other doses, times, organisms or constructs than stated.
System: CD2F1 mice, ip Colon 26 adenocarcinoma, median survival T/C
Experiment: NCI In Vivo Anticancer Drug Screen. Data for tumor model Colon 26 Adenocarcinoma (intraperitoneal) in CD2F1 (CDF1) mice
Conditions: endpoint: median survival time, higher = longer survival
Description: The antitumor activity of compounds was measured in mice bearing transplantable tumors. Survival or tumor size were measured and the results are expressed as the measurement made in the treated group (T) divided by the measurement made in the vehicle treated control group (C). The tumor model used in this assay is Colon 26 Adenocarcinoma (intraperitoneal) in CD2F1 (CDF1) mice

SMILES: CN(C)CCNc1ccc(NCCN(C)C)c2c1C(=O)c1ccccc1C2=O
- T/C (dose: 20.0 mg/kg/injection, schedule: Q01DX009 (ip), vehicle: acid diluted with saline): 113 % of control and 152 % of control

SMILES: N/C(=N\O)c1cn(C2OC(CO)C(O)C2O)c2ncnc(N)c12 (stereo not given)
- T/C (dose: 4.0 mg/kg/injection, schedule: Q04DX003 (ip), vehicle: Klucel (hydroxypropylcellulose) (HPC)): 105 % of control and 165 % of control
- T/C (dose: 8.0 mg/kg/injection, schedule: Q04DX003 (ip), vehicle: Klucel (hydroxypropylcellulose) (HPC)): 118 % of control and 192 % of control

SMILES: CC1CCC(NC(=O)N(CCCl)N=O)CC1 (stereo not given)
- T/C (dose: 35.0 mg/kg/injection, schedule: Q07DX003 (ip), vehicle: saline with Tween-80): 119 % of control and 171 % of control

SMILES: S=c1nc[nH]c2nc[nH]c12
- T/C (dose: 25.0 mg/kg/injection, schedule: Q04DX003 (ip), vehicle: Klucel (hydroxypropylcellulose) (HPC)): 117 % of control and 164 % of control

From PubChem BioAssay AID210 (DTP/NCI, 2004)
